Data as given in article PMC4336329 (PLoS ONE, 2015).
In all, about 310,000 compounds went through this assay and about 2,200 (0.71%) showed an effect of 50% or more. Effects have a minus sign here. The list shows a part of the results.

biological target: human ether-à-go-go-related gene (hERG) potassium channel (human, UniProt Q12809); assay: primary screen, population patch clamp on CHO cells stably expressing hERG
Sequence (Q12809 whole entry, looked up): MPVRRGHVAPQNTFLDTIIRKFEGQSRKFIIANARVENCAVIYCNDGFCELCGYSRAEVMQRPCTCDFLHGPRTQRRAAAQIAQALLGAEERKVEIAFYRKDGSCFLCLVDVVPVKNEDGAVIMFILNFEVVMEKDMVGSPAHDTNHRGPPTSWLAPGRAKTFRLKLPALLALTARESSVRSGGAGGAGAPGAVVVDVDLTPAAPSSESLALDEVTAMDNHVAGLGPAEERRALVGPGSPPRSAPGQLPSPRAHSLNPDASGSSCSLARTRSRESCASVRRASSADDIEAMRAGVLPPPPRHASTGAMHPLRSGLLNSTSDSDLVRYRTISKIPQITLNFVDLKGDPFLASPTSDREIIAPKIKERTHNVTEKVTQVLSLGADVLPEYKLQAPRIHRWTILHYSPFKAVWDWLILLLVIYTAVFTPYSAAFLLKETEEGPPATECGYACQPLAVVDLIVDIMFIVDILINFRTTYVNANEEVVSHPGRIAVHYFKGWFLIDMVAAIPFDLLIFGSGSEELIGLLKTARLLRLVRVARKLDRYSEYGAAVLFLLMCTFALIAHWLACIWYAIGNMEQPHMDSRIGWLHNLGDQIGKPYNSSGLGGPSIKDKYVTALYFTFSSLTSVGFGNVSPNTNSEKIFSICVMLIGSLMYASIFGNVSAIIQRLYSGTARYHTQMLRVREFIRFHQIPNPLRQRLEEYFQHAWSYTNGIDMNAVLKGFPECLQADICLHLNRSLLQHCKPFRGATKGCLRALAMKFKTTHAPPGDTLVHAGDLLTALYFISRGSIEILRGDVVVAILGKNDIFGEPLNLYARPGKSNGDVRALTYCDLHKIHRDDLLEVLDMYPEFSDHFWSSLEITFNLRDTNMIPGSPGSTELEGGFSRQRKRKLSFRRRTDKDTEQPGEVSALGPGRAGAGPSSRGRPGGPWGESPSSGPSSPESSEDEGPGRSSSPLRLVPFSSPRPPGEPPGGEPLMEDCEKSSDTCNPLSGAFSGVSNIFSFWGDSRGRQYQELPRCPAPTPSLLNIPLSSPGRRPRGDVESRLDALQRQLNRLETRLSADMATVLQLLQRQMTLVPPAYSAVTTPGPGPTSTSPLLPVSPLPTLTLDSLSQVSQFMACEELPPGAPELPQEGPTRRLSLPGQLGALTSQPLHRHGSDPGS

**Q.** Which “hERG current change (%, negative = inhibition) at 1uM” value does the source give for CCNc1nc(NCC)n2c(SCC(=O)Nc3ccc(Br)cc3F)nnc2n1 here?
**A.** 2.95%

**Q.** How did the “hERG current change (%, negative = inhibition) at 1uM” value turn out when COc1cc(S(=O)(=O)n2cnc(C)c2)ccc1Br was run?
**A.** 8.54%

**Q.** With CCN(CC)C(=O)C1CCCN(Cc2ccccc2)C1 (stereo not drawn) as the compound, how does the “hERG current change (%, negative = inhibition) at 1uM” value read?
**A.** 11.9%

**Q.** Which “hERG current change (%, negative = inhibition) at 1uM” value does the source give for Cc1ccc(S(=O)(=O)Oc2ccc3c(c2)O/C(=C\c2cccnc2)C3=O)cc1 here?
**A.** -1.74%

**Q.** With CCOC(=O)c1sc(NC(=O)c2cccnc2)nc1C as the compound, how does the “hERG current change (%, negative = inhibition) at 1uM” value read?
**A.** 12.8%

**Q.** For CCOCCc1nnc(NC(=O)C2CC(=O)N(c3ccc(OCC)cc3)C2)s1 (stereo not drawn), which “hERG current change (%, negative = inhibition) at 1uM” value is on record?
**A.** -3.6%

**Q.** Cc1noc(C)c1CSCC(=O)Nc1nc2c(F)cc(F)cc2s1 was tested. Which “hERG current change (%, negative = inhibition) at 1uM” value did it give?
**A.** 5.73%

**Q.** With COc1ccccc1-c1nnc(SCC(=O)N2CCOCC2)o1 as the compound, how does the “hERG current change (%, negative = inhibition) at 1uM” value read?
**A.** 2.31%

**Q.** How did the “hERG current change (%, negative = inhibition) at 1uM” value turn out when COc1ccccc1-c1nnc(SCC(=O)Nc2ccc(S(N)(=O)=O)cc2)n1N was run?
**A.** -0.408%

**Q.** How did the “hERG current change (%, negative = inhibition) at 1uM” value turn out when Cc1cccc(N(CC(=O)NC2CCCC2)C(=O)CNC(=O)c2ccco2)c1C was run?
**A.** 19.9%

**Q.** Which “hERG current change (%, negative = inhibition) at 1uM” value does the source give for O=C(Nc1ccccc1C(=O)O)c1ccc(NC(=O)C2CCCCC2)cc1 here?
**A.** 11.6%

**Q.** For CCC1CCCCN1CCCNC(=O)CCC(=O)N1CCOc2ccccc21 (stereo not drawn), which “hERG current change (%, negative = inhibition) at 1uM” value is on record?
**A.** 11.5%

**Q.** Cc1ncoc1C(=O)NCCC(c1ccccc1)c1ccccc1 was tested. Which “hERG current change (%, negative = inhibition) at 1uM” value did it give?
**A.** 7.32%

**Q.** COc1cc(OC)cc(-c2c(-c3ccc(F)cc3)c3cc(-c4cccc5[nH]ccc45)ccc3n2C)c1 was tested. Which “hERG current change (%, negative = inhibition) at 1uM” value did it give?
**A.** 6.16%

**Q.** How did the “hERG current change (%, negative = inhibition) at 1uM” value turn out when Cc1nnc(NC(=O)CSc2nnc(CC(=O)Nc3ccccc3F)n2C)s1 was run?
**A.** 10.6%

**Q.** How did the “hERG current change (%, negative = inhibition) at 1uM” value turn out when CCOC(=O)C1CCN(S(=O)(=O)c2cn(C)c(C)n2)CC1 was run?
**A.** 13.8%

**Q.** For CC(=O)Nc1cccc(NC(=O)C2CC(=O)N(CCc3ccc(F)cc3)C2)c1 (stereo not drawn), which “hERG current change (%, negative = inhibition) at 1uM” value is on record?
**A.** 11.5%

**Q.** With CC(=O)N[C@@H](Cc1ccc(OC(F)(F)F)cc1)C(=O)O as the compound, how does the “hERG current change (%, negative = inhibition) at 1uM” value read?
**A.** 12.6%

**Q.** Which “hERG current change (%, negative = inhibition) at 1uM” value does the source give for COc1ccc(CCNC(=O)C2CC(c3c(Cl)cccc3Cl)=NO2)cc1 (stereo not drawn) here?
**A.** -9.49%

**Q.** How did the “hERG current change (%, negative = inhibition) at 1uM” value turn out when CC(C)NC(=O)CSc1nnc(-c2ccc3ncccc3c2)n1C was run?
**A.** 15.9%

**Q.** CCC(C)n1c(O)c(C=NCC2CCCO2)c(=O)[nH]c1=S (stereo not drawn) was tested. Which “hERG current change (%, negative = inhibition) at 1uM” value did it give?
**A.** -0.027%

**Q.** Which “hERG current change (%, negative = inhibition) at 1uM” value does the source give for CC1=CC(C)(C)N(C(=O)CNC2CCCC2)c2cc(C)ccc21.O=C(O)C(=O)O here?
**A.** 11%

**Q.** With COc1ccccc1CNC(=O)COc1ccc(Br)c(C)c1 as the compound, how does the “hERG current change (%, negative = inhibition) at 1uM” value read?
**A.** 9.44%

**Q.** With C1=Nc2ccccc2CN1c1ccccc1.Cl as the compound, how does the “hERG current change (%, negative = inhibition) at 1uM” value read?
**A.** -5.84%

**Q.** With COC(=O)C1CC(O)CN1C(=O)c1ccco1 (stereo not drawn) as the compound, how does the “hERG current change (%, negative = inhibition) at 1uM” value read?
**A.** 12.8%

**Q.** How did the “hERG current change (%, negative = inhibition) at 1uM” value turn out when Cc1ccc(C)c(Sc2ccc(NC(=O)CCN3C(=O)NC4(CCCC4)C3=O)cc2)c1 was run?
**A.** -3.91%

**Q.** Which “hERG current change (%, negative = inhibition) at 1uM” value does the source give for Cn1c(CNC(=O)C2CCC(=O)N(CCc3cccc(F)c3)C2)nc2ccccc21 (stereo not drawn) here?
**A.** -0.364%

**Q.** With COc1ccc2sc(N(CCN(C)C)C(=O)c3ccc4ccccc4c3)nc2c1.Cl as the compound, how does the “hERG current change (%, negative = inhibition) at 1uM” value read?
**A.** 18.1%

**Q.** With CCOC(=O)N1CCC(NC(=O)c2cc(S(=O)(=O)N3CCC4(CC3)OCCO4)ccc2F)CC1 as the compound, how does the “hERG current change (%, negative = inhibition) at 1uM” value read?
**A.** 0.96%

**Q.** With CC(C)=CCc1c(-c2ccc(O)cc2O)oc2c3c(cc(O)c2c1=O)OC(C)(C)C=C3 as the compound, how does the “hERG current change (%, negative = inhibition) at 1uM” value read?
**A.** 12.4%

**Q.** How did the “hERG current change (%, negative = inhibition) at 1uM” value turn out when Cc1ccc(/C=N/n2c(-c3ccncc3)n[nH]c2=S)o1 was run?
**A.** 3.44%

**Q.** Which “hERG current change (%, negative = inhibition) at 1uM” value does the source give for O=c1c2sc(-c3ccccc3)cc2nc2n1CCC2 here?
**A.** 4.11%

**Q.** With COc1ccc(N2C(=O)C(C)(C)C2c2c(O)ccc3ccccc23)cc1 (stereo not drawn) as the compound, how does the “hERG current change (%, negative = inhibition) at 1uM” value read?
**A.** 27.5%

**Q.** Which “hERG current change (%, negative = inhibition) at 1uM” value does the source give for CCc1ccc(NC(=O)C2CCN(S(C)(=O)=O)CC2)cc1 here?
**A.** 13.9%

**Q.** COCc1[nH]nc2c1C(c1cccc(OC)c1)C(C#N)=C(N)O2 (stereo not drawn) was tested. Which “hERG current change (%, negative = inhibition) at 1uM” value did it give?
**A.** -10.7%

**Q.** With CC1CCc2c(sc3ncnc(NS(=O)(=O)c4cccs4)c23)C1 (stereo not drawn) as the compound, how does the “hERG current change (%, negative = inhibition) at 1uM” value read?
**A.** 12.7%

**Q.** Which “hERG current change (%, negative = inhibition) at 1uM” value does the source give for Cn1c(CNc2nc(-c3ccccc3)cs2)nnc1SCC(=O)c1ccccc1 here?
**A.** 7.62%

**Q.** With Cn1cccc1CC(=O)N/N=C/c1ccc(C(C)(C)C)cc1 as the compound, how does the “hERG current change (%, negative = inhibition) at 1uM” value read?
**A.** 11.8%

**Q.** How did the “hERG current change (%, negative = inhibition) at 1uM” value turn out when c1ccc(Cc2nn3c(Cn4nnc5ccccc54)nnc3s2)cc1 was run?
**A.** -3.14%

**Q.** With Cc1ccccc1N1C(=O)c2ccccc2C1Nc1cccnc1 (stereo not drawn) as the compound, how does the “hERG current change (%, negative = inhibition) at 1uM” value read?
**A.** 8.29%

**Q.** How did the “hERG current change (%, negative = inhibition) at 1uM” value turn out when N#C/C(=C\c1ccccc1OCc1ccc(C(=O)O)cc1)C(=O)Nc1ccc(O)cc1 was run?
**A.** 0.758%

**Q.** Which “hERG current change (%, negative = inhibition) at 1uM” value does the source give for CC1CCN(S(=O)(=O)CCNC(=O)c2ccccc2)CC1 here?
**A.** 7.11%

**Q.** How did the “hERG current change (%, negative = inhibition) at 1uM” value turn out when CCOC(=O)N1CCN(C(=O)C(C)N(c2ccccc2)S(C)(=O)=O)CC1 (stereo not drawn) was run?
**A.** 9.93%

**Q.** For CC(C)(C)c1ccc(S(=O)(=O)N2CCN(C3CCCC3)CC2)cc1, which “hERG current change (%, negative = inhibition) at 1uM” value is on record?
**A.** 4.83%

**Q.** Which “hERG current change (%, negative = inhibition) at 1uM” value does the source give for Cc1ccc(CNc2cnccn2)s1 here?
**A.** 21.4%
